The supplement of paper PMC12645437, “Orthogonal IMiD-Degron Pairs Induce Selective Protein Degradation in Cells” (ACS Chemical Biology, 2025)
Some of the results follow.

Target: no compound (DMSO)
Experiment: log2 fold change of degron read counts, EGFP-low vs EGFP+ sorted cells; higher = lower degron-EGFP level without compound (poor expression or instability)
Details: compound: DMSO control; 18 h
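Also: jurkat cells carrying a lentiviral library of mutant zinc finger degrons fused to EGFP plus mCherry, mCherry+ cells FACS sorted, degron abundance counted by next-generation sequencing.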

Sequence | log2 fold change of degron read counts
FQCDVCGAAFTQKGNLLRHIKL | -1.04
FQCNVCGACFTQKGNLLRHIKL | -0.799
LKCEICGFSCTQKGNLLRHIKL | -0.739
FMCSVCGHAFTQKGNLLRHIKL | -1.48
FECNQCGRMFTQKGNLLRHIKL | -1.38
FWCEICGHNFTQKGNLLRHIKL | 0.156
LFCPICGFTCTQKGNLLRHIKL | 1.38
FKCDICGAHFTQKGNLLRHIKL | -1.3
FFCPQCGALFTQKGNLLRHIKL | 0.458
FLCSVCGHVFTQKGNLLRHIKL | 0.0947
FTCNVCGALFTQKGNLLRHIKL | -0.625
LNCEICGFLCTQKGNLLRHIKL | 1.12
FNCEQCGALFTQKGNLLRHIKL | -2.47
FNCPICGHNFTQKGNLLRHIKL | -1.56
FKCDICGADFTQKGNLLRHIKL | -2.77
FGCPICGANFTQKGNLLRHIKL | -0.393

Sequence | log2 fold change of degron read counts
LICPICGFQCTQKGNLLRHIKL | 0.371
FGCNICGAHFTQKGNLLRHIKL | 0.191
FTCEICGRRFTQKGNLLRHIKL | -1.08
FHCNQCGHYFTQKGNLLRHIKL | 0.119
FGCDICGAEFTQKGNLLRHIKL | -1.39
FVCPICGHLFTQKGNLLRHIKL | -0.281
FICNQCGHNFTQKGNLLRHIKL | -0.231
FVCPICGAPFTQKGNLLRHIKL | 0.489
FDCNVCGAFFTQKGNLLRHIKL | 0.442
FCCPQCGAKFTQKGNLLRHIKL | -1.57
FACPQCGAPFTQKGNLLRHIKL | -1.26
FICPICGAWFTQKGNLLRHIKL | 0.436
FACEICGAHFTQKGNLLRHIKL | -2.44
FSCEICGAPFTQKGNLLRHIKL | -0.51
LECNQCGFGCTQKGNLLRHIKL | -0.168
FICEVCGAMFTQKGNLLRHIKL | -2.5
